Survival data for 58 compounds are collected here from PubChem BioAssay AID463173 (ICCB-Longwood Screening Facility, Harvard Medical School, 2010).

In all, about 52,000 compounds went through this assay and about 4,300 (8.3%) were called active. Cut-off read from the data, not from the text of the source: active = survival mostly below about 52% (no sharp cut-off); inactive = mostly above about 56%. The list shows a part of the results.

For this assay, the system named is DeltatarO mutant. In words: growth inhibition of S. aureus wild type versus tarO mutant, primary screen, teichoic acid synthesis inhibitors, RN4220, OD600 (AID 463173). As to conditions: OD600, 18 h, hits give low values, screened at 18.75 µg/mL (by protocol).
Consider `COc1ccc(Cl)cc1C(=O)NCC(c1ccc(N(C)C)cc1)N1CCOCC1` (stereo not drawn), for which the survival was inactive: 92%.

For `Cc1cccc(C)c1OCC(=O)N(Cc1ccc(Cl)cc1)CC1CCCO1` (stereo not drawn), the survival was inactive: 79%.

Consider `COc1ccc(Nc2nnc(-c3ccc(C)c(S(=O)(=O)N4CCN(C)CC4)c3)c3ccccc23)cc1`, for which the survival is inactive: 89%.

Regarding `Cc1nc2sccn2c(=O)c1S(=O)(=O)NCc1ccccc1`, the survival is inactive: 77%.

On to `CCOc1ccccc1C1CC(=O)NC(C)=C1C(=O)OCc1ccc(C)cc1` (stereo not drawn), for which the survival is inactive: 84%.

As for `COc1cc2c(cc1OC)C(COc1ccc3c(C)cc(=O)oc3c1)N(C(=O)c1ccc(C)c(C)c1)CC2` (stereo not drawn), the survival was inactive: 74%.

Turning to `COC(=O)c1ccc(OC)c(CN2CCCN(Cc3ccc(C)cc3)S2(=O)=O)c1`, the survival is active: 20%.

Consider `COc1ccc(S(=O)(=O)NCCc2cn3ccsc3n2)cc1OC`, for which the survival was active: -1%.

With `CCOc1ccc(N(Cc2cc3cc(C)ccc3[nH]c2=O)C(=O)c2cccc(Cl)c2)cc1`, the survival is inactive: 86%.

Turning to `O=C(O)CCCC1OC(CCCC(=O)O)OC(CCCC(=O)O)O1` (stereo not drawn), the survival is inactive: 84%.

`CCOC(=O)C1CCN(CCC(=O)Nc2ccccc2Cl)CC1`: the survival is inactive: 165%.

Turning to `CC(C)c1nn2c(=O)cc(COC(=O)c3ccccc3NC(=O)c3cccs3)nc2s1`, the survival was inactive: 78%.

As for `Cn1c(=O)c2c(nc(NCCc3ccccc3)n2Cc2ccc(Cl)c(Cl)c2)n(C)c1=O`, the survival was inactive: 57%.

In the case of `CCCN(Cc1cccs1)C(=O)Nc1ccccc1C`, the survival was inactive: 79%.

As to `CC1CCCN(c2csc3ccccc3c2=O)C1` (stereo not drawn), the survival is inactive: 69%.

As for `Cc1ccc(C(=O)N2c3ncnn3C3(CCCCC3)[C@@H]3CCCC[C@@H]32)cc1`, the survival is inactive: 86%.

On to `Cc1ccc2oc(=O)c(-c3nc4ccc(C)cc4[nH]3)cc2c1`, for which the survival was inactive: 106%.

As for `COc1ccc(OC)c(CNC(=O)CCc2c(C)nc3c(c2C)c(=O)n(C)c(=O)n3C)c1`, the survival was inactive: 89%.

`COc1cccc(OCC(=N)N)c1`: the survival is inactive: 85%.

As for `COc1ccc(Cl)cc1NC(=O)CSc1nnc(C)n2c1cc1sccc12`, the survival is inactive: 68%.

Turning to `CCCOc1ccc(CNC(=O)C(C)n2nc(C)n3c(cc4occc43)c2=O)cc1` (stereo not drawn), the survival is inactive: 57%.

Regarding `CC(C)(C)Sc1cc(C(=O)O)sc1C(=O)O`, the survival was inactive: 96%.

For the compound `COc1ccc(NC(=O)CC2C(=O)N(c3ccc(OC)cc3)C(=O)N2C2CCCCC2)cc1` (stereo not drawn), the survival was inactive: 83%.

Regarding `Cc1c(Cl)cccc1-n1c(SCC(=O)NCc2ccccc2)nc2n[nH]c(C)c2c1=N`, the survival was inactive: 126%.

For `COc1cccc(C(=O)N2CC(=O)Nc3ccc(C)cc3C2c2ccc(F)cc2)c1OC` (stereo not drawn), the survival is inactive: 175%.

`Cc1ccc(Nc2cc(=O)[nH]c(=O)[nH]2)cc1C`: the survival is inactive: 72%.

Consider `Cc1ccc2[nH]c(CSc3nnc(NC(=O)COc4ccccc4C)s3)cc(=O)c2c1`, for which the survival is inactive: 117%.

As for `COc1ccc(Nc2cc(C(=O)NCCCN(C)c3ccccc3)c3ccccc3n2)c(OC)c1`, the survival is inactive: 96%.

For `CCCOCc1cc(CN2CCN(c3cccc(Cl)c3)CC2)c(O)c2ncccc12`, the survival was inactive: 63%.

For the compound `Cc1cccc(C)c1NC(=O)c1c(C)oc2c1C1=NCCN1C=N2`, the survival was inactive: 89%.

For the compound `COc1ccc(CC(=O)Nc2ccc(-c3nc4ccccc4s3)cc2Cl)cc1OC`, the survival was inactive: 57%.

For the compound `Cc1cccc(CCNC(=O)c2ccc3c(c2)nc2n3CCOC2)c1`, the survival is inactive: 76%.

Take `COC(=O)c1ccc(NC(=O)c2cc(S(=O)(=O)N3CCC(C)CC3)cn2C)cc1`: the survival is inactive: 135%.

As for `CCOC(=O)c1ccc(Nc2nc(N)c3cc(OC)c(OC)cc3n2)cc1`, the survival is inactive: 69%.

As for `Cc1oc2ncnc(N3CCCCC3)c2c1C(=O)Nc1cccc(Cl)c1C`, the survival was inactive: 109%.

As to `CCc1ccccc1NS(=O)(=O)c1ccc(-c2coc(C)n2)cc1`, the survival is inactive: 90%.

Regarding `CCC1CCCCN1S(=O)(=O)c1ccc(NC(=O)c2nc(SC)ncc2Cl)cc1` (stereo not drawn), the survival was inactive: 74%.

Take `Cn1c2c(c(=O)n(C)c1=O)C(c1cc(Br)ccc1F)CC(=O)N2` (stereo not drawn): the survival was inactive: 71%.

`Cc1nc2cc(-c3ccccc3)nn2c(C)c1CCC(=O)NCCc1ccccc1`: the survival is inactive: 54%.

Turning to `COc1ccc(-c2ccc3c(N)c(C(=O)Nc4ccc(C)cc4C)sc3n2)cc1OC`, the survival is inactive: 95%.

Consider `COc1ccc(S(=O)(=O)NCC(c2ccco2)N2CCN(c3ccccc3F)CC2)cc1OC` (stereo not drawn), for which the survival is inactive: 84%.

Consider `CC(C)c1nc2ccc(C(=O)NCc3ccc(F)cc3)cc2o1`, for which the survival was inactive: 78%.

For `Cn1c(=O)n(C)c2cc(S(=O)(=O)N3CCCCC3)ccc21`, the survival is inactive: 77%.

Consider `CCn1cc(C(=O)NCCCN2CCC(C)CC2)c(=O)c2cc(S(=O)(=O)N(C)C3CCCCC3)ccc21`, for which the survival was inactive: 96%.

For the compound `Cc1nn(C)c2c1c(-c1ccccc1)cc(=O)n2C(C)C(=O)NCCc1ccc(Cl)cc1` (stereo not drawn), the survival is inactive: 99%.

For the compound `Cc1ccc(NC(=O)c2c(C)oc3ccc(O)c(CN4CCCCC4)c23)cc1`, the survival was inactive: 75%.

With `COc1ccc(NC(=O)c2cc(S(=O)(=O)N3CCCCC3)c[nH]2)cc1Cl`, the survival is inactive: 69%.

With `Cc1cc(C)c(/C=C/c2onc(C)c2S(=O)(=O)N2CCC(C(=O)NCC(C)c3ccccc3)CC2)c(C)c1` (stereo not drawn), the survival was inactive: 115%.

Take `Cc1cc(NC(=O)CC(C)C)cc(-c2nc3ncccc3o2)c1O`: the survival is inactive: 90%.

Take `CC1CCN(C(=O)c2ccccc2NC(=O)c2nsc3ccccc23)CC1`: the survival was inactive: 124%.

For `COCCn1c(SCc2ccncc2)nc2ccccc2c1=O`, the survival was inactive: 85%.

Regarding `COc1ccccc1N1CCN(C(=O)c2nc(-c3ccc(C)cc3)n3c2CCCCC3)CC1`, the survival is inactive: 76%.

`CCOc1ccc(-c2cc(NC(=O)c3c(F)cccc3F)c(C(=O)OC)s2)cc1`: the survival is inactive: 77%.

Consider `COc1ccc(C2C(=O)N(C3CCCCCC3)CC(=O)N2CCc2ccccc2)cc1` (stereo not drawn), for which the survival was inactive: 118%.

`Cc1ccc(CNC(C)c2ccccc2)s1` (stereo not drawn): the survival was inactive: 75%.

In the case of `CC(C)(C)OC(=O)N1CCC(c2c(C(=O)Nc3ccc4c(c3)OCCO4)cnn2-c2ccc(F)cc2)CC1`, the survival is inactive: 89%.

As to `O=C(NCCc1ccccc1)c1ccc2c(c1)N(Cc1ccccc1)C(=O)c1ccccc1S2=O` (stereo not drawn), the survival is inactive: 70%.

Consider `Cc1cccc(-c2nc3c(cnn3-c3ccccc3)c(=O)n2-c2cccc(Cl)c2)c1`, for which the survival is active: 44%.
